Data taken from PubChem BioAssay AID1794842 (National Center for Advancing Translational Sciences (NCATS), 2023).
Out of some 2,800 compounds screened, fewer than 10 were called active. Calls follow the shape of the dose curve; as a rule, active = well fitted curve in the direction sought with a large enough effect; inconclusive = small, poorly fitted or top-dose-only effect, or another doubt; inactive = no such curve, though single readings can be large or run the other way. Some of the results follow.

Target: Metallo-beta-lactamase type 2 (Klebsiella pneumoniae) (UniProt C7C422)
Assay: qHTS to identify inhibitors of the New Delhi Metallo-beta-lactamase (NDM): Meropenem screen against the machine-based learning selections. Also: % of control where 0% means no effect.
Conditions: Purified NDM-1, meropenem hydrolysis, absorbance 300 nm; at 57.5 µM (top of the series) unless noted
Summary of the method: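 NDM-1 (2 nM final) in 50 mM HEPES pH 7.0, 1 uM Zn2SO4, 0.01% Tween20 was preincubated with compounds for >30 min. Nitrocefin (16.7 uM final) was read at 485 nm after 15 min, and meropenem (50 uM final) at 300 nm after 30 min.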

Chain of UniProt C7C422 (C7C422 whole entry, looked up): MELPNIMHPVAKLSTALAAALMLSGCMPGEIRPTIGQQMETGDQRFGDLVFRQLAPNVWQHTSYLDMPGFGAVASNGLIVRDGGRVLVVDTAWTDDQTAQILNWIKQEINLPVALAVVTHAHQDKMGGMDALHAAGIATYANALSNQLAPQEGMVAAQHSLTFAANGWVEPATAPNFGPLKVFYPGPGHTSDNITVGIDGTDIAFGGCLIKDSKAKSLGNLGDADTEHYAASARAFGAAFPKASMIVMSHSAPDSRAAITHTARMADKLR

Row | SMILES | activity change, negative = inhibition
1 | CN(C)c1ccc(C(=O)NC[C@H]2C[C@@H]3CCN2C[C@@H]3CN2CCCCC2)cc1 | inactive: 2.4%
2 | CCC(CC)c1cc([C@H]2CN3CC[C@H]2C[C@@H]3CNC(=O)c2ccc(N(C)C)cc2)nc(-c2ccncc2)n1 | inactive: 6.26% [at 38.4 µM]
3 | COCCC(=O)N1[C@H]2CC[C@@H]1c1cnc(-c3ccccc3)nc1C2 | inactive: -0.338% [at 38.4 µM]
4 | Cc1ccccc1-c1ccc2n(c1=O)C[C@H]1C[C@@H]2CN(C(=O)NC2CCCCC2)C1 | inactive: -3.66%
5 | CCCCc1cn(C[C@H]2CC3CCN2C[C@@H]3C(=O)NCc2ccccc2)nn1 (stereo not given in full) | inactive: 0.377%
6 | CCN(CC)C[C@H]1CN2CC[C@H]1C[C@@H]2CNC(=O)Nc1ccccc1 | inactive: -4.49%
7 | O=C(c1cncnc1)N1C[C@@H]2C[C@H](C1)c1c(-c3ccc4ccccc4c3)ccc(=O)n1C2 | inactive: -1.1%
8 | Cn1nc(-c2cccs2)cc1[C@H]1CN2CC[C@H]1C[C@@H]2CNCc1ccccn1 | inactive: 91.4%
9 | CC(=O)c1ccc(NC(=O)NC[C@H]2C[C@@H]3CCN2C[C@@H]3c2cc(-c3ccco3)nc(C)n2)cc1 | inactive: 8.05% [at 38.4 µM]
10 | CC(C)NC(=O)[C@H]1CN2CCC1C[C@@H]2Cn1cc(CN(C)Cc2ccccc2)nn1 (stereo not given in full) | inactive: 0.305%
11 | CC[C@H]1CN2CC[C@H]1C[C@@H]2CNS(=O)(=O)c1ccc2ccccc2c1 | inactive: -3.14%
12 | Cc1cc(NCCc2c[nH]c(=O)[nH]c2=O)n2nccc2n1 | inactive: 33.3% [at 38.4 µM]
13 | CNc1ncc(C(=O)N2C[C@H]3COc4ccccc4C[C@@]3(C(=O)O)C2)cn1 | inactive: 0.324% [at 38.4 µM]
14 | COc1ccc(-c2cc([C@H]3CN4CC[C@H]3C[C@@H]4CNC(=O)C3CCC3)n(C)n2)cc1OC | inactive: 4.37%
15 | CCOc1ccc(CC(=O)N2CCC3(CC2)c2nccn2-c2ccccc2CN3C)cc1 | inactive: -1.87% [at 38.4 µM]
16 | CCC(CC)c1cc([C@H]2CN3CC[C@H]2C[C@@H]3CNC(=O)C2CC2)nc(-c2ccncc2)n1 | inactive: -3.47%
17 | CC[C@H]1CN2CC[C@H]1C[C@@H]2COC(=O)Nc1ccc(C(C)(C)C)cc1 | inactive: 12.4%
18 | O=C1CO[C@H]2CN(Cc3ccncc3)C[C@H]2N1Cc1ccccc1 | inactive: 4.58%
19 | C#C[C@H]1CN2CC[C@H]1C[C@@H]2CNCc1ccc(C(F)(F)F)cc1 | inactive: -0.0776%
20 | CSCC(=O)N1C[C@@H]2C[C@H](C1)c1c(-c3ccc(NC(C)=O)cc3)ccc(=O)n1C2 | inactive: 4.49%
